Some of the results follow.
How the values were obtained:
Experiment in all cases: glycan array binding signal (z-score within array); higher = stronger binding
Details in all cases: glycan notation: IUPAC condensed, linker removed
[1] = biological target: Gal(b1-4)GlcNAc(b1-6)Gal(b1-4)GlcNAc
Procedure, shortened: (§1)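 Columns mapping to the same glycan were averaged after glycan names were converted to IUPAC-condensed notation. The data come from 3228 arrays in the Consortium for Functional Glycomics database, limited to those with an available protein sequence. Binding is reported as a within-array Z-score averaged across arrays of one protein sequence and across linkers.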

[2] = biological target: Gal(b1-4)GlcNAc(b1-6)Gal(b1-4)GlcNAc(b1-6)GalNAc
Procedure, shortened: as §1

[3] = biological target: Gal(b1-4)GlcNAc(b1-6)GalNAc
Procedure, shortened: as §1

[4] = biological target: Gal(b1-4)GlcNAc(b1-6)[Gal(b1-3)]GalNAc
Procedure, shortened: as §1

[5] = biological target: Gal3S(b1-3)GalNAc
Procedure, shortened: as §1

[6] = biological target: Gal3S(b1-3)GlcNAc
Procedure, shortened: as §1

[7] = biological target: Gal3S(b1-3)[Fuc(a1-4)]GlcNAc
Procedure, shortened: as §1

[8] = biological target: Gal3S(b1-4)Glc
Procedure, shortened: as §1

[9] = biological target: Gal3S(b1-4)Glc6S
Procedure, shortened: as §1

[10] = biological target: Gal3S(b1-4)GlcNAc
Procedure, shortened: as §1

[11] = biological target: Gal3S(b1-4)GlcNAc6S
Procedure, shortened: as §1

[12] = biological target: Gal3S(b1-4)[Fuc(a1-3)]Glc
Procedure, shortened: as §1

[13] = biological target: Gal3S4S(b1-4)GlcNAc
Procedure, shortened: as §1

[14] = biological target: Gal3S6S(b1-4)GlcNAc
Procedure, shortened: as §1

[15] = biological target: Gal3S6S(b1-4)GlcNAc6S
Procedure, shortened: as §1

[16] = biological target: Gal4S(b1-4)GlcNAc
Procedure, shortened: as §1

[17] = biological target: Gal4S6S(b1-4)GlcNAc
Procedure, shortened: as §1

[18] = biological target: Gal6S(b1-4)Glc
Procedure, shortened: as §1

[19] = biological target: Gal6S(b1-4)Glc6S
Procedure, shortened: as §1

[20] = biological target: Gal6S(b1-4)GlcNAc
Procedure, shortened: as §1

[21] = biological target: Gal6S(b1-4)GlcNAc6S
Procedure, shortened: as §1

[22] = biological target: GalNAc(a1-3)Gal
Procedure, shortened: as §1

[23] = biological target: GalNAc(a1-3)GalNAc
Procedure, shortened: as §1

[24] = biological target: GalNAc(b1-3)Gal
Procedure, shortened: as §1

[25] = biological target: GalNAc(b1-3)Gal(a1-4)Gal(b1-4)GlcNAc
Procedure, shortened: as §1

[26] = biological target: GalNAc(b1-3)Gal(a1-4)Gal(b1-4)GlcNAc(b1-3)Gal(b1-4)Glc
Procedure, shortened: as §1

[27] = biological target: GalNAc(b1-3)GalNAc
Procedure, shortened: as §1

[28] = biological target: GalNAc(b1-4)GlcNAc
Procedure, shortened: as §1

[29] = biological target: GalNAc(b1-4)GlcNAc(b1-2)Man(a1-3)[GalNAc(b1-4)GlcNAc(b1-2)Man(a1-6)]Man(b1-4)GlcNAc(b1-4)GlcNAc
Procedure, shortened: as §1

[30] = biological target: Glc(a1-4)Glc
Procedure, shortened: as §1

B1: DETC sTCR (Mus musculus) (protein)
chain: LDVYLEPVAKTFTVVAGDPASFYCTVTGGDMKNYHMSWYKKNGTNALFLVYKLNSNSTDGGKSNLKGKINISKNQFILDIQKATMKDAGTYYCGSDIGGSSWDTRQMFFGTGIELFVEPKSQPPAKPSVFIMKNGTNVACLVKDFYPKEVTISLRSSKKIVEFDPAIVISPSGKYSAVKLGQYGDSNSVTCSVQHNSETVHSTDFEPYANSFNNEKLPEPENDTQISEPCSSADLVPRGSTTAPSAQLKKKLQALKKKNAQLKWKLQALKKKLAQHHHHHHDSWISQDQLSFTRRPNKTVHISCKLSGVPLHNTIVHWYQLKEGEPLRRIFYGSVKTYKQDKSHSRLEIDEKDDGTFYLIINNVVTSDEATYYCACWDSSGFHKVFAEGTKLIVIPSDKRLDADISPKPTIFLPSVAETNLHKTGTYLCLLEKFFPDVIRVYWKEKDGNTILDSQEGDTLKTNDTYMKFSWLTVPERAMGKEHRCIVKHENNKGGADQEIFFPSIKKVAVSTKPTTCSSADLVPRGSTTAPSAQLEKELQALEKENAQLEWELQALEKELAQLNDIFEAQKIEW
- glycan array binding signal (z-score) [1]: 1.48
- glycan array binding signal (z-score) [2]: -0.482
- glycan array binding signal (z-score) [3]: -0.211
- glycan array binding signal (z-score) [4]: 0.963
- glycan array binding signal (z-score) [5]: -0.476
- glycan array binding signal (z-score) [6]: -0.401
- glycan array binding signal (z-score) [7]: 0.144
- glycan array binding signal (z-score) [8]: -0.234
- glycan array binding signal (z-score) [9]: -0.454
- glycan array binding signal (z-score) [10]: 2.74
- glycan array binding signal (z-score) [11]: 0.151
- glycan array binding signal (z-score) [12]: 0.85
- glycan array binding signal (z-score) [13]: -0.546
- glycan array binding signal (z-score) [14]: -0.25
- glycan array binding signal (z-score) [15]: 0.465
- glycan array binding signal (z-score) [16]: -0.27
- glycan array binding signal (z-score) [17]: -0.471
- glycan array binding signal (z-score) [18]: -0.381
- glycan array binding signal (z-score) [19]: -0.376
- glycan array binding signal (z-score) [20]: -0.4
- glycan array binding signal (z-score) [21]: -0.529
- glycan array binding signal (z-score) [22]: -0.71
- glycan array binding signal (z-score) [23]: -0.567
- glycan array binding signal (z-score) [24]: 0.005
- glycan array binding signal (z-score) [25]: -0.629
- glycan array binding signal (z-score) [26]: -0.289
- glycan array binding signal (z-score) [27]: -0.204
- glycan array binding signal (z-score) [28]: -0.411
- glycan array binding signal (z-score) [29]: 1.48
- glycan array binding signal (z-score) [30]: 1.66

— the supplement of paper PMC8728848
